Data on 87 compounds can be found in article PMC4336329 (PLoS ONE, 2015).

Screen size: about 310,000 compounds; about 14,000 (4.5%) showed an effect of 50% or more. The effect is printed as a negative number. The list shows a part of the results.
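Note: peak tail current of the secondary pulse compared with the same well before compound.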

Sequence of human ether-à-go-go-related gene (hERG) potassium channel (Q12809 whole entry, looked up): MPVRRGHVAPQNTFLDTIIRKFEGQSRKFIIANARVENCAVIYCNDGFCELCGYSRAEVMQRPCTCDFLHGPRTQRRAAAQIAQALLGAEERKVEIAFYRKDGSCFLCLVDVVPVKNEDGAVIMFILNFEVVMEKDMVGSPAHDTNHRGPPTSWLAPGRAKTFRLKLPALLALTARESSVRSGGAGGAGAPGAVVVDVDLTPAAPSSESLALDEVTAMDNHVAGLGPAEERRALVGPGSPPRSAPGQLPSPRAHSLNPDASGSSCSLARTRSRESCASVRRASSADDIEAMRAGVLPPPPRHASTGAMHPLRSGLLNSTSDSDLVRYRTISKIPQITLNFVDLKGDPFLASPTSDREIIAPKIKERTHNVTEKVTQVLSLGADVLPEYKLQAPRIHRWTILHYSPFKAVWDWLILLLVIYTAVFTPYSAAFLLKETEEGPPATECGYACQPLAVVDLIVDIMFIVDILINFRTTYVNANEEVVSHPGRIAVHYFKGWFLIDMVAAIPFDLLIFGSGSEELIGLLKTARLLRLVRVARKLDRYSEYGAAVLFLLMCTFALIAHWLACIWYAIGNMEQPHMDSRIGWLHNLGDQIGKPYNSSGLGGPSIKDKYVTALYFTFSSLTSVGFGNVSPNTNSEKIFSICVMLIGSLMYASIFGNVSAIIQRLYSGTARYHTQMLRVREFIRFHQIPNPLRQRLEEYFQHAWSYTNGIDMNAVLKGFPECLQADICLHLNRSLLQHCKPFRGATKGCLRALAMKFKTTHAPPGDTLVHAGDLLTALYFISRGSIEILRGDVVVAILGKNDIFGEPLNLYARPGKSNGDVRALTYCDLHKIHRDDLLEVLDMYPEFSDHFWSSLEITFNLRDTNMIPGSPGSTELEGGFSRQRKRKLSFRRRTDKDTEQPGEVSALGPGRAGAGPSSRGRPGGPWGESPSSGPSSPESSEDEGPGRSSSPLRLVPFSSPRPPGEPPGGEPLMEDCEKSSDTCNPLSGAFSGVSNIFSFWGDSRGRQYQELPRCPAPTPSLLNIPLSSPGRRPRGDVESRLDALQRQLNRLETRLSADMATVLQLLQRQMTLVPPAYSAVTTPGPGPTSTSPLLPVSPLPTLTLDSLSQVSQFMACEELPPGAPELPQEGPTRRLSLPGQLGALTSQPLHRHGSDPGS

The test addresses human ether-à-go-go-related gene (hERG) potassium channel (human, UniProt Q12809). The test is described as follows: primary screen, population patch clamp on CHO cells stably expressing hERG.
Regarding `Cn1c(=O)c2c(nc(SCCN3CCOCC3)n2Cc2ccc(F)cc2)n(C)c1=O`, the “hERG current change (%, negative = inhibition) at 10uM” value is -56%.

With `Cc1cc(C)nc(NC(=O)CSc2nnnn2-c2ccccc2)n1`, the “hERG current change (%, negative = inhibition) at 10uM” value is -12.3%. The same measure for `CSCCC(N=CC1=C(O)CC(C)(C)CC1=O)C(=O)O` (stereo not drawn): 5.97%; for `COC(=O)C1CSC(C)(C)C(=O)N1` (stereo not drawn): 4.6%; for `CCOC(=O)N1CCC(Nc2c(NCCCN(CC)c3cccc(C)c3)c(=O)c2=O)CC1`: -22%. On to `O=S(=O)(NCCc1cccs1)c1ccc(Br)cc1`, for which the “hERG current change (%, negative = inhibition) at 10uM” value was -15.7%. For `CCOc1ccc(-c2nnn(CC(=O)NCc3ccco3)n2)cc1OCC`, the “hERG current change (%, negative = inhibition) at 10uM” value is -3.89%.

For the compound `COC(=O)c1cc(=O)n(CCc2ccccc2F)c(=Nc2ccc(F)c(Cl)c2)s1`, the “hERG current change (%, negative = inhibition) at 10uM” value worked out at 14.1%. Then `C[N+]1(CCN2C(=O)C3CC=C(Cl)CC3C2=O)CCOCC1.[Br-]` (stereo not drawn), with 4.11%; and `CN(C(=O)c1ccco1)c1nc(-c2ccccc2)cs1`, with 7.97%; and `COc1ccc(NC(=O)c2ccc(Cl)c(S(=O)(=O)N3CCc4ccccc4C3)c2)cn1`, with -46.8%. The same measure for `O=C(Nc1nc2ccsc2c(=O)s1)C1CCC1`: 7.03%.

On to `Cc1ccccc1-n1c(SCC(=O)N/N=C/C=C/c2ccccc2[N+](=O)[O-])nc2ccccc2c1=O`, for which the “hERG current change (%, negative = inhibition) at 10uM” value was determined as 17.5%. The same measure for `CCCN1C(=O)C(Cc2nc3ccccc3c(=O)n2C)c2ccccc21` (stereo not drawn): -12.8%. The same measure for `Cc1ccc(NS(=O)(=O)c2cc(N)ccc2Cl)c(C)c1`: 6.64%; for `O=C(CCl)Nc1ccc(N2CCCCCC2)cc1`: 4.41%; for `CCOC(=O)c1cn(CC)c2c(ccc3ccccc32)c1=O`: 15.5%.

In the case of `O=C(COC(=O)c1ccc2c(c1[N+](=O)[O-])C(=O)c1ccccc1C2=O)NC1CC1`, the “hERG current change (%, negative = inhibition) at 10uM” value amounted to 14.6%. Turning to `COc1cc(CNCc2ccc(OC)c(OC)c2OC)cc(OC)c1`, the “hERG current change (%, negative = inhibition) at 10uM” value was -7.28%. The same measure for `COc1ccccc1N1CCN(Cc2cc(=O)c(OCC(=O)NC(C)C)co2)CC1`: 13.2%; for `CCCSc1nc2c(c(=O)[nH]c(=O)n2C)n1Cc1ccccc1`: -17.4%.

On to `Cc1ccc(-c2csc3nc(CSc4nnc(-c5ccc(Cl)cc5)n4C)[nH]c(=O)c23)cc1`, for which the “hERG current change (%, negative = inhibition) at 10uM” value is listed as -16.7%. As to `COc1ccc(C(CNC(=O)c2cc(=O)[nH]c3ccccc23)N2CCCC2)cc1` (stereo not drawn), the “hERG current change (%, negative = inhibition) at 10uM” value is 9.16%.

Regarding `C#CCSc1nnnn1-c1cccc(Cl)c1`, the “hERG current change (%, negative = inhibition) at 10uM” value is given as -9.19%. Then `C[C@]12CC[C@@H]3c4ccc(OS(=O)(=O)[O-])cc4CC[C@H]3[C@@H]1CCC2=O.[Na+]`, with 16.9%. Take `O=C(Nc1cccc(Cl)c1)Nc1nccs1`: the “hERG current change (%, negative = inhibition) at 10uM” value is on record as -2.77%. The same measure for `C/C(=N/NC(=O)C1CCN(S(=O)(=O)c2ccc(C)cc2)CC1)c1cccc([N+](=O)[O-])c1`: 8.25%; for `N=c1c(S(=O)(=O)c2ccc(Cl)cc2)cc2c(=O)n3ccccc3nc2n1C1CCCC1`: 14%; for `O=C(O)c1ccc(N2C(=O)/C(=C\c3ccccc3)N=C2c2ccccc2)cc1`: 1.57%. With `Cc1ccccc1N1CC(=O)N(c2ccccc2C)CC1=O`, the “hERG current change (%, negative = inhibition) at 10uM” value is given as -4.18%. Then `O=S(=O)(c1ccccc1)N1CCN=C1SCc1ccc(Cl)cc1`, with -2.02%.

With `COCCN1CCN(C(=O)c2cc(COc3ccc(Cl)cc3OC)on2)CC1`, the “hERG current change (%, negative = inhibition) at 10uM” value is 19%.

Turning to `CCOC(=O)N1CCC(NC(=O)C2=C(C)C(=O)OC23CCC(C)CC3)CC1` (stereo not drawn), the “hERG current change (%, negative = inhibition) at 10uM” value is reported as -7.09%.

`CCOc1ccc(S(=O)(=O)NCc2cccnc2)cc1C`: the “hERG current change (%, negative = inhibition) at 10uM” value is on record as 6.51%. As to `CCCc1c(C(=O)N/N=C/c2c(OC)ccc3ccccc23)nnn1-c1nonc1N`, the “hERG current change (%, negative = inhibition) at 10uM” value came to 14.4%.

For `CC(=O)c1cccc(NC(=O)C2=CN3CCS(=O)(=O)N=C3C=C2)c1`, the “hERG current change (%, negative = inhibition) at 10uM” value came out at 10.8%. The same measure for `Cc1c(S(=O)(=O)N2CCN(c3cccc(Cl)c3)CC2)c(=O)n(C)c(=O)n1C`: 2.47%. As for `O=C(Nc1nnc(SCc2cccc(F)c2)s1)c1ccco1`, the “hERG current change (%, negative = inhibition) at 10uM” value was found to be 2.16%. Then `Cc1cc(C)c(C(=O)NC2CC(C)(C)Cc3c2cnn3-c2ccccc2)o1` (stereo not drawn), with -31.4%; and `CC(NS(C)(=O)=O)c1nnc2n1-c1ccc(Br)cc1C(c1ccccc1Cl)=NC2` (stereo not drawn), with -12.2%; and `CCN(C(=S)NCc1ccccc1)c1ccccc1`, with -21.2%. For `O=C(CN1CCCc2ccccc21)N1CCc2ccccc21`, the “hERG current change (%, negative = inhibition) at 10uM” value was determined as 8.15%. `N#Cc1cccc(NC(=O)NCCc2c[nH]c3ccccc23)c1`: the “hERG current change (%, negative = inhibition) at 10uM” value was -13.8%. The same measure for `COc1ccccc1OC(=O)C1CC(=O)N(c2ccc(Cl)cc2)C1` (stereo not drawn): -17.7%. As to `O=C(O)c1ccc(NC(=O)N2C[C@H]3C[C@@H](C2)c2cccc(=O)n2C3)cc1`, the “hERG current change (%, negative = inhibition) at 10uM” value is given as -6.02%. The same measure for `CCOc1ccccc1NC(=O)c1cccnc1`: 18.1%; for `COc1ccc(CSc2nc(O)cc(=O)n2CC(C)C)cc1F`: 5.11%; for `COc1cc(C2C(C#N)=C(C)NC3=C2C(=O)CC(C)(C)C3)cc(OC)c1O` (stereo not drawn): 7.3%.

In the case of `CC(=O)Nc1cccc(NC(=O)CCNC(=O)c2ccccc2)c1`, the “hERG current change (%, negative = inhibition) at 10uM” value is recorded as 11.2%. The same measure for `O=C(NC1CCCc2c1cnn2-c1ccc(F)cc1F)c1ccccc1N1CCOCC1` (stereo not drawn): -38.8%; for `COc1ccc(CNc2nc(-c3cccnc3)nn2C(=O)c2ccco2)cc1`: 3.06%; for `Cc1ccc(NC(=O)c2cc(N3C(=O)CCC3=O)ccc2N2CCOCC2)cc1`: -22.2%. Then `CCOC(=O)c1ccc(NC(=O)COc2ccccc2OC)cc1`, with 2.1%. Consider `COc1cccc(NC(=O)NC2(C(F)(F)F)Oc3ccccc3O2)c1`, for which the “hERG current change (%, negative = inhibition) at 10uM” value was -3.56%. `CCOc1ccc(CC2C(=O)NC(=O)N(c3ccc(CC)cc3)C2=O)cc1` (stereo not drawn): the “hERG current change (%, negative = inhibition) at 10uM” value was 2.16%. The same measure for `COc1cccc(/C=C2\SC(=O)N(CC(=O)NC3CCS(=O)(=O)C3)C2=O)c1` (stereo not drawn): -3.81%. Regarding `COc1ccc2c(c1)[nH]c1c(Cl)ncnc12`, the “hERG current change (%, negative = inhibition) at 10uM” value worked out at 3.14%. Then `CCCCc1nc(SCCN2CCOCC2)c2c(=O)n(C)c(=O)n(C)c2n1`, with -37.3%; and `CCCC[C@H]1COCCS(=O)(=O)N1Cc1cccc(F)c1`, with -22.6%; and `Cn1c(=O)oc2cc(S(=O)(=O)Nc3ccc(F)cc3)ccc21`, with 15.8%. Consider `CC1=C(C(=O)OCC2CCCO2)C(c2ccccc2)C2=C(CC(C)(C)CC2=O)N1` (stereo not drawn), for which the “hERG current change (%, negative = inhibition) at 10uM” value was 5.9%. As to `Cc1oc2c(c1C(=O)N1CCOCC1)C(=O)c1ccccc1C2=O`, the “hERG current change (%, negative = inhibition) at 10uM” value worked out at 5.25%.

`COC(=O)Cn1c(O)c(N=NC(=O)CNC(=O)c2ccc3c(c2)OCCO3)c2ccccc21`: the “hERG current change (%, negative = inhibition) at 10uM” value turned out to be 3.62%. Consider `CCN(c1ccccc1)S(=O)(=O)c1nnc(NC(=O)CC(C)C)s1`, for which the “hERG current change (%, negative = inhibition) at 10uM” value is 2.43%. Consider `Cc1ccc2oc(=O)c3cnn(CC(=O)N4CCN(c5ccccn5)CC4)c3c2c1`, for which the “hERG current change (%, negative = inhibition) at 10uM” value is reported as -27.6%. Then `O=S(=O)(c1ccc2nc(N3CCN(c4ccccc4)CC3)ccc2c1)N1CCCCC1`, with 19.4%; and `O=C(Nc1ccncc1)Nc1cccc(Cl)c1`, with -16.1%. Then `COc1ccc(-c2cn(-c3ccc(OC)cc3)c(=S)[nH]2)cc1`, with 16.3%. For `Cc1c(Cl)ccc2c(C(=O)Nc3cc(C(C)(C)C)on3)cc(-c3ccccn3)nc12`, the “hERG current change (%, negative = inhibition) at 10uM” value amounted to 5.13%. The same measure for `CSc1nncc(/C(C)=N\Nc2ccccc2)n1`: 9.18%; for `CCCCCN(C(=O)CCC(=O)OC(C)C(=O)NCc1ccccc1)c1c(N)n(CCCC)c(=O)[nH]c1=O` (stereo not drawn): -14.5%.

With `CCOC(CNC(=O)c1ccc2c(c1)ncn2-c1ccccc1OC)OCC`, the “hERG current change (%, negative = inhibition) at 10uM” value was determined as 2.14%. As to `COc1cccc(C(=O)Nc2nc3c(c(=O)[nH]2)CCCC3)c1`, the “hERG current change (%, negative = inhibition) at 10uM” value was found to be 1.79%.

Take `CCN1C[C@]2(COC)CC[C@H](O)[C@@]34C5C[C@H]6[C@H](O)C5[C@](O)(C[C@H]6OC)[C@@H]([C@H](OC)C23)[C@@H]14` (stereo partly drawn): the “hERG current change (%, negative = inhibition) at 10uM” value worked out at 2.57%. Then `Cc1c(S(=O)(=O)N2CCN(C(=O)c3ccco3)CC2)c(=O)n(C)c(=O)n1C`, with 0.0708%; and `COC(=O)CCC(=O)NNC(=O)CCC(=O)Nc1cccc(Cl)c1C`, with 6.61%; and `CCOC(=O)c1c(-c2ccc(C)o2)csc1NC(=O)CN(C)CC(=O)Nc1ccc(C)cc1`, with 8.55%. The same measure for `Cc1ccc(N(C(=O)c2ccco2)C(C(=O)NC2CCCC2)c2ccco2)c(C)c1` (stereo not drawn): 10.7%; for `O=C(COc1ccc2ccccc2c1)Nc1cccnc1Cl`: 6.3%. `FC(F)(F)c1cnc(COc2ccc(Cl)cc2Cl)c(Cl)c1`: the “hERG current change (%, negative = inhibition) at 10uM” value is reported as 18.8%. With `Cc1cc(C)c(NC(=O)c2ccc[n+](Cc3ccc([N+](=O)[O-])cc3)c2)c(C)c1.[Br-]`, the “hERG current change (%, negative = inhibition) at 10uM” value is on record as -1.16%. The same measure for `COc1nc(Nc2ccc3c(c2)OCO3)nc(OC)n1`: -0.366%; for `CCOC(=O)N1CCN(C(=O)CSc2nnc(CNC(=O)c3ccccc3F)o2)CC1`: 6.37%; for `COC(=O)CCC(=O)OC1(C)C(=O)C=C2C=C3CCCN3C=C2C1=O` (stereo not drawn): -21.5%. Then `Cc1cccc(C(=O)NCCNC(=O)c2cccnc2)c1`, with 18.6%; and `Cn1c(NC(=O)c2ccco2)c(-c2ccccc2)c(=O)c2ccccc21`, with 13.6%; and `Cc1ccc(F)c(NC(=S)Nc2cccc3ccccc23)c1`, with 19.6%.
